The other results are listed elsewhere or left out.
Experiments:
[1] = tested on: HSkMC (human skeletal muscle cells); test: cytotoxicity call (relative viability < 0.9); conditions: 10 µM
[2] = tested on: HepG2; test: cytotoxicity call (relative viability < 0.9); conditions: 10 µM
[3] = tested on: S. aureus RN4220; test: growth inhibition call (relative growth <= 0.2); conditions: 50 µM

C[C@H]1CN([C@@H](C)CO)S(=O)(=O)c2ccc(C#Cc3ccccn3)cc2O[C@H]1CN(C)Cc1ccccc1
inactive: cytotoxicity call [1] | cytotoxicity call [2] | growth inhibition call [3]

C[C@@H]1CN([C@@H](C)CO)C(=O)c2cccc(NC(=O)C3CC3)c2O[C@H]1CN(C)Cc1ccc(Oc2ccccc2)cc1
inactive: cytotoxicity call [1] | cytotoxicity call [2] | growth inhibition call [3]

C[C@@H]1CCCCO[C@@H](CN(C)C(=O)Nc2ccc(F)cc2)[C@H](C)CN([C@H](C)CO)C(=O)c2cc(NS(=O)(=O)c3ccc(F)cc3)ccc2O1
inactive: cytotoxicity call [1] | cytotoxicity call [2] | growth inhibition call [3]

C[C@@H]1CN([C@@H](C)CO)C(=O)c2cccc(NC(=O)C3CCOCC3)c2O[C@@H]1CN(C)Cc1ccccc1
inactive: cytotoxicity call [1] | cytotoxicity call [2] | growth inhibition call [3]

COc1ccc(S(=O)(=O)Nc2ccc3c(c2)CC(=O)N([C@H](C)CO)C[C@H](C)[C@H](CN(C)S(=O)(=O)c2cccs2)O3)cc1
inactive: cytotoxicity call [1] | cytotoxicity call [2] | growth inhibition call [3]

C[C@@H]1CN([C@H](C)CO)C(=O)c2cc(NC(=O)c3ccncc3)ccc2O[C@@H]1CN(C)S(=O)(=O)c1cccs1
inactive: cytotoxicity call [1] | cytotoxicity call [2] | growth inhibition call [3]

Cc1noc(C)c1NC(=O)N(C)C[C@H]1Oc2c(NC(=O)Nc3ccc(C(F)(F)F)cc3)cccc2C(=O)N([C@H](C)CO)C[C@@H]1C
inactive: cytotoxicity call [1] | cytotoxicity call [2] | growth inhibition call [3]

N[C@@H](C(=O)O)c1ccc(O)c(C(=O)O)c1
inactive: cytotoxicity call [1] | cytotoxicity call [2] | growth inhibition call [3]

C[C@@H]1CCCCO[C@H](CN(C)Cc2ccc(Cl)c(Cl)c2)[C@@H](C)CN([C@@H](C)CO)C(=O)c2cc(NC(=O)c3ccccc3)ccc2O1
inactive: cytotoxicity call [1] | cytotoxicity call [2] | growth inhibition call [3]

Reference: the antibiotic and cytotoxicity screens of Wong et al. (2023)
